# Experimental data published in PubChem BioAssay (Tox21).
# Values joined by “and” are separate entries in the source; they are usually repeats but may differ in a detail not shown here. Equal values may be shown once. This list was built around the results that the source calls inconclusive (neither active nor inactive); the mix of calls is not that of the screen. Where the call is inconclusive, the potency comes from a doubtful curve fit. Active and inactive are the calls of the source. Unless noted, calls follow the shape of the dose curve; as a rule, active = well fitted curve in the direction sought with a large enough effect in the repeat runs; inconclusive = weak or mixed curves; inactive = no such curve, though single readings can be large; an effect the other way counts as inactive or inconclusive.
# Assays:
# [1] = qHTS assay to identify small molecule antagonists of the peroxisome proliferator-activated receptor gamma (PPARg) signaling pathway - cell viability counter screen (AID 743194); conditions: PPARg-bla HEK293H viability, CellTiter-Glo luminescence, 17 h; Potency: co-treated with 50 nM rosiglitazone unless noted; activity change, negative = cytotoxicity: at 62.6 µM (top of the series), co-treated with 50 nM rosiglitazone unless noted; also: nearly all actives have a fitted effect of over 55% in size
# In short: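 PPARg-UAS-bla HEK293H cells were plated, rested 5 h at 37 C, then treated with compounds plus rosiglitazone (50 nM final) for 17 h at 37 C; viability was then read by CellTiter-Glo luminescence after 30 min at room temperature.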
# [2] = qHTS assay for small molecule agonists of the antioxidant response element (ARE) signaling pathway (AID 743202; active = well fitted activation curve with a large enough effect in the signal ratio in the repeat runs, not every such curve was filed as active; inconclusive = weak or mixed curves, or effect the other way; inactive = no such curve, though single readings can be large or run the other way; the % refers to the signal ratio; as to activation: % is scaled to controls: 0 for no effect and ±100 for the full control effect); conditions: HepG2 ARE-bla reporter, beta-lactamase FRET, 16 h; activation: at 73.3 µM (top of the series) unless noted
# In short: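 Steps: seed ARE-bla HepG2 cells (2,000/well); incubate 5 h at 37 C; add compounds by pin tool; incubate 16 h at 37 C; add FRET substrate; read fluorescence after 2 h at RT.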
# [3] = qHTS assay for small molecule activators of the heat shock response signaling pathway (AID 743210; active = well fitted activation curve with a large enough effect in the signal ratio in the repeat runs, with a control signal flat, not every such curve was filed as active; inconclusive = weak or mixed curves; the % refers to the signal ratio;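 as to activation: HeLa cells with beta-lactamase reporter driven by heat shock elements; % is scaled to controls: 0 for no effect and ±100 for the full control effect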); conditions: HeLa HSE-bla reporter, beta-lactamase ratio, 5 h; activation: at 62.6 µM (top of the series) unless noted
# In short: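 Activation of heat shock element-controlled beta-lactamase expression is measured in HeLa cells by LiveBLAzer FRET fluorescence, with compound exposure lasting 5 h at 37 C and substrate loading 2.5 h at room temperature.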
# [4] = qHTS assay to identify small molecule antagonists of the peroxisome proliferator-activated receptor delta (PPARd) signaling pathway - cell viability counter screen (AID 743213); conditions: PPARd-bla HEK293H viability, CellTiter-Glo luminescence, 17 h; viability change, negative = cytotoxic: at 62 µM (top of the series) unless noted; also: nearly all actives have a fitted effect of over 50% in size
# In short: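 HEK293H PPARd UAS-bla cells, 5 h pre-incubation, compound + L165041 300 nM final, 17 h 37 C; B/G FRET substrate 2 h RT; then CellTiter-Glo 30 min RT, luminescence.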
# [5] = biological target: Bile acid receptor (Homo sapiens) (UniProt Q96RI1); experiment: qHTS assay to identify small molecule antagonists of the farnesoid-X-receptor (FXR) signaling pathway (AID 743217; active = well fitted inhibition curve with a large enough effect in the signal ratio in the repeat runs, not every such curve was filed as active; inconclusive = weak or mixed curves, or effect the other way; inactive = no such curve, though single readings can be large or run the other way; the % refers to the signal ratio; as to activity change, negative = inhibition: % is scaled to controls: 0 for no effect and ±100 for the full control effect); conditions: HEK293T FXR-UAS-bla, beta-lactamase ratio, CDCA-stimulated, 16 h; activity change, negative = inhibition: at 62.6 µM (top of the series) unless noted
# Sequence of UniProt Q96RI1 (Q96RI1 whole entry, looked up): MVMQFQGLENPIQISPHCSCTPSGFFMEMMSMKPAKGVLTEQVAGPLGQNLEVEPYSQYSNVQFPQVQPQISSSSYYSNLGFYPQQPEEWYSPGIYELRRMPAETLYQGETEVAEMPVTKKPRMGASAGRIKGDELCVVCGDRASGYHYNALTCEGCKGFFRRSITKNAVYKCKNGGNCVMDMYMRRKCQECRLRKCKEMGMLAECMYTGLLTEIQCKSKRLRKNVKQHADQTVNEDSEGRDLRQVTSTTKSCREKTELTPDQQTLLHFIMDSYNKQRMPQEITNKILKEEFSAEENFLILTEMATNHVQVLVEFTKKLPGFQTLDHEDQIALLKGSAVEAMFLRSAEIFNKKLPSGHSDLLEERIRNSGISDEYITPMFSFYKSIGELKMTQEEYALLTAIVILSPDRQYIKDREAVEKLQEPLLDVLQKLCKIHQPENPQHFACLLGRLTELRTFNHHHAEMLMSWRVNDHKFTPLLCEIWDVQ
# In short: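 Test compounds are pin-transferred onto FXR-bla HEK 293T cells, then chenodeoxycholic acid is added at 50 uM final. After 16 h at 37 °C, LiveBLAzer B/G substrate is applied for 2 h at room temperature and fluorescence read.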
# [6] = biological target: Peroxisome proliferator-activated receptor delta (Homo sapiens) (UniProt Q03181); experiment: qHTS assay to identify small molecule antagonists of the peroxisome proliferator-activated receptor delta (PPARd) signaling pathway (AID 743215; active = well fitted inhibition curve with a large enough effect in the signal ratio in the repeat runs, not every such curve was filed as active; inconclusive = weak or mixed curves, or effect the other way; inactive = no such curve, though single readings can be large or run the other way; the % refers to the signal ratio;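 also: cells stimulated with agonist L165041 at 300 nM final during compound exposure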; as to ratio activity, negative = inhibition: % is scaled to controls: 0 for no effect and ±100 for the full control effect); conditions: HEK293H PPARd-UAS-bla, beta-lactamase FRET ratio, antagonist, 17 h; ratio activity, negative = inhibition: at 62 µM (top of the series) unless noted
# Sequence of UniProt Q03181 (Q03181 whole entry, looked up): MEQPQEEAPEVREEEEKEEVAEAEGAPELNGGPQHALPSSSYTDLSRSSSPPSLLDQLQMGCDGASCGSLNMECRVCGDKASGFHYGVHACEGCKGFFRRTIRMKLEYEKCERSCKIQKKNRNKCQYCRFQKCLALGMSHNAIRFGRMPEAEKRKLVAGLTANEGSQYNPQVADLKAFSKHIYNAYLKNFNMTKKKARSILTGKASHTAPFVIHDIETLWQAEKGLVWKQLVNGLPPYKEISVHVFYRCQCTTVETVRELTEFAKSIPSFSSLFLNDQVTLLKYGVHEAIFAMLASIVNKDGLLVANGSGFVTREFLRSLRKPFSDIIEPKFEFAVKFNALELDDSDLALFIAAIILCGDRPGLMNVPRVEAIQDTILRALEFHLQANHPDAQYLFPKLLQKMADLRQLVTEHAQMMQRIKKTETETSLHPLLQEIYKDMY
# In short: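 Here, a reporter line (HEK293H, beta-lactamase under a UAS) measures PPARd signaling. Compounds are tested against agonist L165041 at 300 nM final concentration over 17 h at 37 C, with fluorescence read after substrate.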
# [7] = qHTS assay to identify small molecule agonists of the peroxisome proliferator-activated receptor delta (PPARd) signaling pathway - cell viability counter screen (AID 743211); conditions: PPARd-bla HEK293H viability, CellTiter-Glo luminescence, 17 h; activity change, negative = cytotoxicity: at 62.6 µM (top of the series); also: nearly all actives have a fitted effect of over 55% in size
# In short: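 Viability was measured as CellTiter-Glo luminescence (30 min, room temperature) in the same wells as the beta-lactamase readout. GeneBLAzer PPARd UAS-bla HEK293H cells received compound after 5 h plating and were incubated 17 h at 37 C.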
# [8] = biological target: Peroxisome proliferator-activated receptor delta (Homo sapiens) (UniProt Q03181); experiment: qHTS assay to identify small molecule agonists of the peroxisome proliferator-activated receptor delta (PPARd) signaling pathway (AID 743212; calls by dose curve); conditions: HEK293H PPARd-UAS-bla, beta-lactamase FRET ratio, 17 h; activation: at 62.6 µM (top of the series) unless noted
# In short: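 Cells expressing a UAS-driven beta-lactamase reporter (PPARd-bla HEK293H) were given test compounds after a 5 h settle and kept at 37 C. Reporter activity was then measured as FRET fluorescence using LiveBLAzer B/G substrate.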
# Potency is read from the fitted curve at half-maximal effect; tags tell the direction and shape of the fitted curve or compound fluorescence and quenching.
structure (smiles),measurement,setting,value
CCC[CH2][Sn]([CH2]CCC)([CH2]CCC)[O][Sn]([CH2]CCC)([CH2]CCC)[CH2]CCC,Potency,[1],active: 427 nM
same,Potency,[2],"inconclusive: 0.238 µM [falling, full curve]"
same,Potency,[3],inconclusive: 0.517 µM
same,Potency,[4],active: 0.759 µM
same,Potency,[5],"inconclusive: 1.51 µM [rising, partial curve]"
Brc1ccc(Oc2ccccc2)cc1,Potency,[1],"inconclusive: 61600 nM [cytotoxic, single point]"
same,activation,[2],inconclusive: 4.53%
same,Potency,[3],inconclusive: 35.5 µM [activator] and inactive
same,Potency,[6],inactive
CCC(C)(C)C(=O)OC1=C(c2ccc(Cl)cc2Cl)C(=O)OC12CCCCC2,Potency,[1],"inconclusive: 61600 nM [cytotoxic, partial curve, poor fit]"
same,Potency,[2],"inconclusive: 77 µM [falling, partial curve, poor fit]"
same,Potency,[3],inconclusive: 61.6 µM
same,"activity change, negative = inhibition",[5],inconclusive: 20.1%
O=C/C=C/c1ccccc1,"activity change, negative = cytotoxicity",[1],inconclusive: 33.5%
same,Potency,[2],"inconclusive: 75.2 µM [rising, single point]"
same,Potency,[3],inactive
Oc1cc(Cl)ccc1Oc1ccc(Cl)cc1Cl,Potency,[1],"active: 6.31 µM and inconclusive: 29.8 µM [cytotoxic, partial curve, poor fit]"
same,Potency,[2],"inconclusive: 11.9 µM [rising, single point]"
same,Potency,[3],inconclusive: 23.6 µM and inconclusive: 32.2 µM
same,Potency,[6],"inconclusive: 0.0631 µM [rising, full curve, poor fit]"
same,Potency,[5],inconclusive: 53 µM
same,"activity change, negative = inhibition",[5],inconclusive: -10.2%
Nc1ccc(Cl)cc1N,Potency,[1],"inconclusive: 21.9 nM [rising, full curve]"
same,Potency,[2],"inconclusive: 4.5 µM [rising, full curve]"
same,Potency,[3],"inconclusive: 36 µM [rising, partial curve, poor fit] and inconclusive: 19.9 µM [rising, partial curve, poor fit]"
same,Potency,[7],"inactive and inconclusive: 243 nM [cytotoxic, single point]"
same,Potency,[4],"inconclusive: 1.23 µM [cytotoxic, full curve, poor fit]"
CSc1nnc(C(C)(C)C)c(=O)n1N,Potency,[1],"inconclusive: 21900 nM [rising, single point]"
same,Potency,[2],inactive
same,Potency,[7],"inconclusive: 21.9 µM [rising, partial curve, poor fit]"
CC(O)C(=O)[O][Hg][c]1ccccc1 (stereo not drawn),Potency,[1],active: 436 nM
same,Potency,[2],"inconclusive: 0.686 µM [falling, full curve]"
same,Potency,[3],inconclusive: 1.18 µM
same,Potency,[8],"inconclusive: 21.9 µM [falling, partial curve, poor fit]"
same,Potency,[4],active: 1.95 µM
same,Potency,[6],"inconclusive: 2.19 µM [inhibitor, single point]"
same,Potency,[5],"inconclusive: 1.95 µM [rising, partial curve]"
CC(=O)[O][Pb]([c]1ccccc1)([c]1ccccc1)[c]1ccccc1,Potency,[1],active: 110 nM
same,Potency,[2],"inconclusive: 0.864 µM [falling, full curve]"
same,Potency,[3],inconclusive: 11.8 µM
same,Potency,[7],active: 1.23 µM
same,Potency,[8],"inconclusive: 15.5 µM [falling, full curve]"
same,Potency,[4],active: 1.23 µM
same,Potency,[6],"inconclusive: 19.5 µM [cytotoxic, full curve]"
same,Potency,[5],"inconclusive: 1.23 µM [rising, full curve]"
O=C(O)COc1nc(Cl)c(Cl)cc1Cl,Potency,[1],"inconclusive: 1780 nM [cytotoxic, full curve, poor fit]"
same,Potency,[2],"inconclusive: 35.2 µM [rising, partial curve]"
same,Potency,[8],"inconclusive: 28.2 µM [rising, full curve]"
same,Potency,[4],"inconclusive: 0.398 µM [cytotoxic, full curve, poor fit]"
same,Potency,[6],"inconclusive: 0.199 µM [rising, full curve, poor fit]"
same,"activity change, negative = inhibition",[5],inconclusive: -16.9% [at 81.1 µM]
c1cc(OCC2CO2)ccc1Cc1ccc(OCC2CO2)cc1 (stereo not drawn),Potency,[1],"inconclusive: 43.8 µM [cytotoxic, partial curve] and inconclusive: 61.6 µM [cytotoxic, partial curve, poor fit]"
same,Potency,[2],active: 61.4 µM and active: 61.1 µM
same,Potency,[3],inconclusive: 57.3 µM and inconclusive: 57.1 µM [activator]
same,Potency,[8],inconclusive: 61.9 µM [single point] and inconclusive: 61.6 µM
same,Potency,[6],"inconclusive: 49.2 µM [rising, single point]"
same,"ratio activity, negative = inhibition",[6],inconclusive: 3.32%
same,"activity change, negative = inhibition",[5],inconclusive: 9.62% [at 81.1 µM]
